Results reported in the supplement of paper PMC7826260.
This is one part of the list. The data describe in vitro nicking of single-stranded DNA by Rep domains for 1 h at 37 °C with 3 µM enzyme; only the middle of the 90-letter strands is printed. Uncut reads are compared with the no-enzyme pool on a log2 scale; the lower, the more was cut; hits are not called. Because reads are shares of a total, they shift together; uncut strands gain when others are lost, and binding without cutting may add a little.

What follows are sequences tested on T1, Rep nickase domain of tomato golden mosaic virus (assay: uncleaved DNA left, log2 of reads against the no-enzyme library (log2 ratio); higher = less cleavage (more negative = more Rep cleavage of the k-mer); sequences stand for … in CTCGTCCG…ACCGGAGA).
T1 sequence (Rep 1-124, printed without the tag): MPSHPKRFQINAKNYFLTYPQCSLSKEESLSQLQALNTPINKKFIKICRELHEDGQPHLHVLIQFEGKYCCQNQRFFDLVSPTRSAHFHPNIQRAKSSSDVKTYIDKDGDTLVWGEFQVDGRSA
Method: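 A pool of 90-nt single-stranded DNAs with seven random bases just before the constant AC of the nick site (name = the seven bases) was cut by 3 µM recombinant His6-SUMO-tagged Rep nickase domain (300 nM DNA, 50 mM HEPES pH 8.0, 50 mM NaCl, 1 mM MnCl2, 1 h, 37 °C, three replicates). Uncut DNA was amplified and sequenced.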
In the case of AATATCT, the “uncleaved DNA left (log2)” value is reported as -0.0514.
In the case of GTCAGGT, the “uncleaved DNA left (log2)” value is reported as -0.0144.
With GAAGGCA the “uncleaved DNA left (log2)” value was -0.0208.
For AACAACC, the “uncleaved DNA left (log2)” value was -0.0127.
With GTAATCT the “uncleaved DNA left (log2)” value was 0.0644.
TTGCCCC was tested, and the “uncleaved DNA left (log2)” value was -0.116.
CCACGAA was tested, and the “uncleaved DNA left (log2)” value was -0.0858.
For CGGCAAC, the “uncleaved DNA left (log2)” value was -0.0797.
In the case of ACGCGGG, the “uncleaved DNA left (log2)” value is reported as -0.0465.
For GAGGGGA, the “uncleaved DNA left (log2)” value was 0.0613.
With ATCCTAT the “uncleaved DNA left (log2)” value was 0.0769.
TATGGAT was tested, and the “uncleaved DNA left (log2)” value was 0.0464.
In the case of AGCAGCT, the “uncleaved DNA left (log2)” value is reported as -0.0356.
With GTTTCTA the “uncleaved DNA left (log2)” value was 0.126.
GAAGTCT was tested, and the “uncleaved DNA left (log2)” value was -0.0423.
TCACCAA was tested, and the “uncleaved DNA left (log2)” value was -0.0123.
CGTAAAA was tested, and the “uncleaved DNA left (log2)” value was 0.0493.
TTCCCGG was tested, and the “uncleaved DNA left (log2)” value was 0.14.
In the case of ATAAGGT, the “uncleaved DNA left (log2)” value is reported as 0.0229.
With AGCCAAA the “uncleaved DNA left (log2)” value was 0.181.
In the case of CCTTCAG, the “uncleaved DNA left (log2)” value is reported as -0.0222.
GCAATAA was tested, and the “uncleaved DNA left (log2)” value was 0.115.
With ATGTGCA the “uncleaved DNA left (log2)” value was -0.00616.
For CAGCAGC, the “uncleaved DNA left (log2)” value was 0.0366.
In the case of TAACGGA, the “uncleaved DNA left (log2)” value is reported as 0.0638.
For ACTAGTG, the “uncleaved DNA left (log2)” value was -0.089.
In the case of GTGATGA, the “uncleaved DNA left (log2)” value is reported as 0.0192.
With AGAGTTG the “uncleaved DNA left (log2)” value was 0.115.
For GTCCCGA, the “uncleaved DNA left (log2)” value was 0.0349.
In the case of ACACTGA, the “uncleaved DNA left (log2)” value is reported as -0.0551.
With CGTAGTG the “uncleaved DNA left (log2)” value was 0.0532.
With AAGTTAC the “uncleaved DNA left (log2)” value was -0.0835.
For AATACTA, the “uncleaved DNA left (log2)” value was 0.0337.
ACAGCTC was tested, and the “uncleaved DNA left (log2)” value was 0.145.
For AGATAAC, the “uncleaved DNA left (log2)” value was 0.0455.
AGGGGCC was tested, and the “uncleaved DNA left (log2)” value was 0.0176.
With TCTCCTG the “uncleaved DNA left (log2)” value was 0.0371.
With TAATGCG the “uncleaved DNA left (log2)” value was 0.0385.
In the case of TCCTCCA, the “uncleaved DNA left (log2)” value is reported as -0.199.
GTCGCGC was tested, and the “uncleaved DNA left (log2)” value was -0.0529.
